Reference: patent US20240124575A1 (SIMCERE ZAIMING PHARMACEUTICAL, published 2024)

B1: S006-NB146-39 (Fc fusion)
chain: EVQLVESGGGLVQPGESLRLSCTAPGIILDYYPIGWFRQAPGKEREGVAFITNSDDSTIYTNYADSVKGRFTISREKNTVYLQMNSLKPEDTALYYCAARSTYIVGRNENALNSSDYDYWGQGTQVTVSS[letters of human IgG1 Fc with changes left out]
notes: tested as VHH-Fc (VHH with human IgG1 hinge and Fc)
B2: S006-NB146-46 (Fc fusion)
chain: QLQLVESGGGLVQPGGSLRLSCTAPGIVLDYYPIGWFRQAPGKEREGVSFITNSDDSTIYTNYADSVKGRFTISREKNTVYLQMNSLKPEDTAVYYCAARSTYIVGRNENALNASDYDYWGQGTQVTVSS[letters of human IgG1 Fc with changes left out]
notes: as for B1
B3: S006-NB146-20 (Fc fusion)
chain: EVQLVESGGGSVQAGGSLRLSCGTPQSWFRLSSYVMNWYRQAPGKRRELVAEITQDDTTNYTPSVKGRFAISRDNANNTVHLQMNSLKPEDTAVYYCNTIQIWGQGTQVTVSS[letters of human IgG1 Fc with changes left out]
notes: as for B1
B4: S006-NB146-3 (Fc fusion)
chain: EVQVVESGGGLVQSGGSLRLSCAASGAIFTSNAMDYAMGWYRQVSGKQREWVATITSDDDTNYGDSAKGRFTISRDSAKNTAYLQMNSLKPEDTAVYYCFANVRSDRSTLYRNYWGQGTQVTVSS[letters of human IgG1 Fc with changes left out]
notes: as for B1
B5: S006-NB146-40 (Fc fusion)
chain: QVQLVESGGGLVQSGGSLRLSCAASGSIFTSNDMDYAMGWYRQVSGKQREWVATITSDEDTNYGDSVKGRFTISRDSAKNTAYLQMNSLKPEDTAVYYCFANLRSDRSTLYRNYWGQGTQVTVSS[letters of human IgG1 Fc with changes left out]
notes: as for B1
B6: S006-NB146-139 (Fc fusion)
chain: QLQLVESGGGLVQPGGSLRLSCAAPGIILDYYPIGWFRQAPGKEREGVSYITSSDDSTVYTYYTDSVKGRFTISRGKNTVYLQMNSLKPEDTAVYYCAARSTYIVGRNYHTLNSSDFDYWGQGTQVTVSS[letters of human IgG1 Fc with changes left out]
notes: as for B1
B7: S006-NB146-69 (Fc fusion)
chain: EVQVVESGGGLVQAGGSLSLSCAASGSIFTINIMGWYRQAPGKQRELVAQINRVGDTNYPNSMAERFTISRDNAKNTMYLQMNTLKPEDTAVYYCNADIVESGRYSGKDYWGKGTLVTVSL[letters of human IgG1 Fc with changes left out]
notes: as for B1
B8: S006-NB147-25 (Fc fusion)
chain: QLQLVESGGGLVQAGGSLRLSCKASGVTFSINALGWYRQAPGKQREMVAVISSGGSTNYVDSVKGRFTISRDNAKNTVYLQMNSLKPEDTAVYYCNADVVGSSWSPEYDYWGQGTQVTVST[letters of human IgG1 Fc with changes left out]
notes: as for B1

Each binder was assayed against T1, human CD33-his protein (human, UniProt P20138 18-259) (assay: competition ELISA, coated human CD33-his, vs Biotin-C33B904 at EC80; antibody 15.63 nM).
T1 construct: range 18-259; bought protein; also called hCD33-his; recombinant human CD33-his; not shown: His tag

OD450 (Biotin-C33B904 signal)	Binder
2.25	B1
1.78	B2
2.33	B3
2.35	B4
2.39	B5

What follows are binders tested against T1, human CD33-his protein (assay: competition ELISA, coated human CD33-his, vs Biotin-C33B904 at EC80; antibody 250.00 nM).
T1 sequence (P20138 18-259 limits assumed): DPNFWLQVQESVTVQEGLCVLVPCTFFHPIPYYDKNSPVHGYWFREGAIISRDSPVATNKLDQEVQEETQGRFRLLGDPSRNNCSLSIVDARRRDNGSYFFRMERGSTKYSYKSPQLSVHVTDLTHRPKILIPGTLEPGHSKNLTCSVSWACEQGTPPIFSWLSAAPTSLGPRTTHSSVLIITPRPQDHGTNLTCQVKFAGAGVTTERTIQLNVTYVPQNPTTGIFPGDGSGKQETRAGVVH

OD450 (Biotin-C33B904 signal)	Binder
1.98	B6
1.78	B7
0.41	B8

Each binder was assayed against T1, human CD33-his protein (assay: competition ELISA, coated human CD33-his, vs Biotin-C33B904 at EC80; antibody 7.81 nM).

OD450 (Biotin-C33B904 signal)	Binder
2.62	B6
2.33	B7
2.56	B8

Each binder was assayed against T1, human CD33-his protein (assay: competition ELISA, coated human CD33-his, vs Biotin-C33B904 at EC80; antibody 0.98 nM).

OD450 (Biotin-C33B904 signal)	Binder
2.22	B6
2.14	B7
2.66	B8

The binders below were run against T1, human CD33-his protein (assay: competition ELISA, coated human CD33-his, vs Biotin-C33B904 at EC80; antibody 3.91 nM).

OD450 (Biotin-C33B904 signal)	Binder
2.49	B6
2.34	B7
2.73	B8

What follows are binders tested against T1, human CD33-his protein (assay: competition ELISA, coated human CD33-his, vs Biotin-C33B904 at EC80; antibody 31.25 nM).

OD450 (Biotin-C33B904 signal)	Binder
1.64	B1
1.05	B2
2.2	B3
2.46	B4
2.47	B5

Target: T1, human CD33-his protein
Assay: as above
Remark: another data set of the same source

OD450 (Biotin-C33B904 signal)	Binder
2.5	B6
2.43	B7
1.55	B8

The binders below were run against T1, human CD33-his protein (assay: competition ELISA, coated human CD33-his, vs Biotin-C33B904 at EC80; antibody 62.50 nM).

OD450 (Biotin-C33B904 signal)	Binder
2.4	B6
2.32	B7
0.95	B8

Target: T1, human CD33-his protein
Assay: as above
Remark: another data set of the same source

OD450 (Biotin-C33B904 signal)	Binder
1.14	B1
0.95	B2
2.07	B3
2.35	B4
2.57	B5

Target: T1, human CD33-his protein
Assay: competition ELISA, coated human CD33-his, vs Biotin-C33B904 at EC80; antibody 0.98 nM
Remark: another data set of the same source

OD450 (Biotin-C33B904 signal)	Binder
2.56	B1
2.16	B2
2.27	B3
2.12	B4
2.36	B5

What follows are binders tested against T1, human CD33-his protein (assay: competition ELISA, coated human CD33-his, vs Biotin-C33B904 at EC80; antibody 0 nM (no competitor)).

OD450 (Biotin-C33B904 signal)	Binder
2.6	B6
2.51	B7
2.34	B8

Target: T1, human CD33-his protein
Assay: competition ELISA, coated human CD33-his, vs Biotin-C33B904 at EC80; antibody 3.91 nM
Remark: another data set of the same source

OD450 (Biotin-C33B904 signal)	Binder
2.51	B1
1.99	B2
2.43	B3
2.2	B4
2.42	B5

These binders were tested against T1, human CD33-his protein (assay: competition ELISA, coated human CD33-his, vs Biotin-C33B904 at EC80; antibody 0.49 nM).

OD450 (Biotin-C33B904 signal)	Binder
2.49	B6
2.39	B7
2.75	B8

Target: T1, human CD33-his protein
Assay: as above
Remark: another data set of the same source

OD450 (Biotin-C33B904 signal)	Binder
2.45	B1
2.14	B2
2.25	B3
2.28	B4
2.21	B5

These binders were tested against T1, human CD33-his protein (assay: competition ELISA, coated human CD33-his, vs Biotin-C33B904 at EC80; antibody 125.00 nM).

OD450 (Biotin-C33B904 signal)	Binder
2.16	B6
2.03	B7
0.68	B8

Target: T1, human CD33-his protein
Assay: competition ELISA, coated human CD33-his, vs Biotin-C33B904 at EC80; antibody 0 nM (no competitor)
Remark: another data set of the same source

OD450 (Biotin-C33B904 signal)	Binder
2.51	B1
2.24	B2
2.33	B3
2.35	B4
2.29	B5

Each binder was assayed against T1, human CD33-his protein (assay: competition ELISA, coated human CD33-his, vs Biotin-C33B904 at EC80; antibody 500 nM).

OD450 (Biotin-C33B904 signal)	Binder
1.7	B6
1.49	B7
0.28	B8

What follows are binders tested against T1, human CD33-his protein (assay: competition ELISA, coated human CD33-his, vs Biotin-C33B904 at EC80; antibody 1.95 nM).

OD450 (Biotin-C33B904 signal)	Binder
2.61	B1
2.07	B2
2.29	B3
2.44	B4
2.31	B5

Target: T1, human CD33-his protein
Assay: competition ELISA, coated human CD33-his, vs Biotin-C33B904 at EC80; antibody 250.00 nM
Remark: another data set of the same source

OD450 (Biotin-C33B904 signal)	Binder
0.34	B1
0.26	B2
1.61	B3
2.46	B4
2.81	B5

Target: T1, human CD33-his protein
Assay: competition ELISA, coated human CD33-his, vs Biotin-C33B904 at EC80; antibody 125.00 nM
Remark: another data set of the same source

OD450 (Biotin-C33B904 signal)	Binder
0.5	B1
0.45	B2
1.96	B3
2.48	B4
2.94	B5

Target: T1, human CD33-his protein
Assay: competition ELISA, coated human CD33-his, vs Biotin-C33B904 at EC80; antibody 1.95 nM
Remark: another data set of the same source

OD450 (Biotin-C33B904 signal)	Binder
2.4	B6
2.36	B7
2.71	B8

Target: T1, human CD33-his protein
Assay: competition ELISA, coated human CD33-his, vs Biotin-C33B904 at EC80; antibody 15.63 nM
Remark: another data set of the same source

OD450 (Biotin-C33B904 signal)	Binder
2.6	B6
2.55	B7
2.12	B8

Target: T1, human CD33-his protein
Assay: competition ELISA, coated human CD33-his, vs Biotin-C33B904 at EC80; antibody 500 nM
Remark: another data set of the same source

OD450 (Biotin-C33B904 signal)	Binder
0.26	B1
0.19	B2
1.6	B3
2.61	B4
2.87	B5

Target: T1, human CD33-his protein
Assay: competition ELISA, coated human CD33-his, vs Biotin-C33B904 at EC80; antibody 7.81 nM
Remark: another data set of the same source

OD450 (Biotin-C33B904 signal)	Binder
2.13	B1
1.76	B2
2.33	B3
2.35	B4
2.4	B5
